# Reference: the supplement of paper PMC3334620
# In all, about 33,000 sequences were measured (“E-score (-0.5 to 0.5)”: median about -0.012, highest 2% from about 0.27 on). Some of the results follow.
# Molecular target: T1, Vhr1 (UniProt P40522)
# T1 sequence: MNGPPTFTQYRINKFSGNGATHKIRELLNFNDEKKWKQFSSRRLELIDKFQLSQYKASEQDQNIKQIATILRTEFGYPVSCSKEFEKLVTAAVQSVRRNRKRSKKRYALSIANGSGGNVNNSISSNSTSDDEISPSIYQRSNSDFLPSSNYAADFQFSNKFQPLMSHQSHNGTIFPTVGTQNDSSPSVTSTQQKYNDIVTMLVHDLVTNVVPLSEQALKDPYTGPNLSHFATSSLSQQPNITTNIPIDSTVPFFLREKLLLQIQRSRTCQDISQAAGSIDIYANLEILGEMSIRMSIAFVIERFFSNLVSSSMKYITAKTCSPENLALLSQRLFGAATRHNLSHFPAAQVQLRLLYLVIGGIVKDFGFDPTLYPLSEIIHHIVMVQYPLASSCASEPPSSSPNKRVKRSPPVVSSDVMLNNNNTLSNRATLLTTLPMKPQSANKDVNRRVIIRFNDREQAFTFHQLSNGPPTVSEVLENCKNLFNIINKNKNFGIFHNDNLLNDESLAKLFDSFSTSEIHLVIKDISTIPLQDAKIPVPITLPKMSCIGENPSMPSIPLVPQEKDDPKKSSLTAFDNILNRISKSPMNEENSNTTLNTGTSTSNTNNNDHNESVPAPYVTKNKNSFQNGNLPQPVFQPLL
# Assay: PBM E-score (8-mer binding enrichment) (E-score (-0.5 to 0.5)); higher = stronger / more preferred TF binding; most listed sequences are background and not binding sites
# Conditions: protein concentration: 200 nM; construct: GST-full length
# Protocol: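 Universal 'all 10-mer' protein binding microarrays (Agilent AMADID 015681) probed with GST-tagged S. cerevisiae TFs (full-length or DBD) made by in vitro transcription/translation (PURExpress), about 100-200 nM. Bound TF was detected with fluorescent anti-GST. Each ungapped 8-mer (which stands for itself and its reverse complement) is scored by the PBM enrichment score (E-score), a modified Wilcoxon-Mann-Whitney statistic from -0.5 to +0.5, computed with the Universal PBM Analysis Suite. Scale: above 0.35 generally sequence-specific binding.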
row,Sequence,PBM E-score
1,AACCTCCG,-0.142
2,CGTAAGAC,-0.223
3,GCGTCCCA,-0.106
4,AAAGCCCT,-0.213
5,TAGTATAA,0.037
6,ATCTGGGG,-0.0365
7,ACTGTGCC,-0.0794
8,AAGATCCG,-0.183
9,GGTTTAGA,-0.014
10,CTAACGAC,-0.185
11,CGAGGCCC,-0.0877
12,GGACAACC,-0.166
13,ATCCATGC,0.0584
14,CCAACGTA,-0.0646
15,CCCTGAGA,-0.099
16,CCAACCCC,0.0253
17,ACCATTAC,0.235
18,CAACGTGG,-0.0312
19,TGCACCCA,0.113
20,CGAAAGCA,-0.046
21,GACTTCTC,-0.129
22,CATTGTCA,0.0479
23,ATAGGGTC,0.197
24,AGGTAGAC,0.0654
25,CTCGCGTA,-0.105

row,Sequence,PBM E-score
1,GATGTGGC,0.0698
2,GTGTACCA,0.163
3,CCAGGACC,-0.0337
4,ATTCACTA,0.0464
5,GAGCGGAC,-0.168
6,TATATCGA,0.244
7,ACAAATGT,-0.0484
8,CAGCAAGG,-0.0914
9,GAGGAAGA,-0.0347
10,GTTCCATA,0.0199
11,CAGAATTA,-0.0726
12,CAGTGGCA,-0.257
13,AGGGATGA,0.15
14,ATGAGTTA,0.0485
15,ATACTAGA,0.0677
16,TTCCAAAA,-0.214
17,CGCGGGTA,0.212
18,AACGACTG,-0.0789
19,AGCTGCAT,-0.214
20,CACCTACG,-0.0294
21,AAATTTCC,-0.237
22,AGTAGGAT,-0.00756
23,ACGTGTAT,0.116
24,AACACTAG,0.0236
25,ATACGGCA,0.0905

row,Sequence,PBM E-score
1,CGAAGTAA,-0.107
2,GCGATACA,0.0396
3,ATGGCCCC,-0.228
4,ATATCAAT,0.214
5,ACATCTGA,-0.245
6,CCGCGCTA,0.225
7,ATCCTCTG,-0.134
8,AATTGCAT,-0.0683
9,CTAGATAA,-0.0922
10,GGTCCCAA,-0.0206
11,CGACTGGA,0.0449
12,CCCCCAGC,-0.15
13,CATACCGA,0.00498
14,AGACCTGC,-0.147
15,AACCGAAA,-0.242
16,AAGACTTA,-0.0601
17,AGTCTGCC,0.0302
18,GGGCTGTA,-0.134
19,TACCGGTA,0.0264
20,AGACGATA,0.0401
21,AATGCGGA,0.0182
22,AACCAAGT,-0.0417
23,ATGTGACC,0.216
24,ATGAGAGA,-0.025
25,AAGCAGGA,-0.00459

row,Sequence,PBM E-score
1,CCATATGG,0.0743
2,GGCCTTAA,-0.212
3,TCTGCCAA,-0.205
4,TTCTGCAA,-0.0232
5,ATATGCTC,0.143
6,ATACGCAT,0.147
7,CACGGCGG,0.102
8,CTATACGA,-0.0332
9,ACCTATCA,-0.0422
10,ACCTAGTA,0.0588
11,AAGATAAG,0.0463
12,AATCATCT,0.185
13,CCTGGTCA,0.0815
14,AGATCGTG,-0.0385
15,AAGGCCCA,-0.0641
16,CACGCATG,0.0925
17,GTGGTTAA,0.176
18,GCGGGGAC,0.216
19,AGGTATAA,-0.0154
20,CGTCGTGC,0.0934
21,AATGTAAA,-0.0495
22,ACTAGGGG,0.035
23,TGCCTACA,-0.113
24,AGAATGCA,0.106
25,CGGCATGC,0.182

row,Sequence,PBM E-score
1,GTTAGCTA,0.0588
2,CCGGAATA,-0.0911
3,GTTAAGCA,-0.0747
4,GCAGACAC,0.0989
5,ATCAAATG,0.0659
6,CCCCTTGA,0.0801
7,TAGGTTCA,0.0506
8,AGCTAGAT,-0.0103
9,ATAGGAGA,-0.00333
10,GGCCGTAA,-0.155
11,ACTAATCG,0.251
12,CGCGCTAG,0.0638
13,GAGCACGA,0.129
14,GATGATCA,0.285
15,GCCATACA,0.124
16,ATCCACAC,0.119
17,TACTTCCA,-0.106
18,AAGTGTCG,0.0415
19,CGTCGGTC,0.146
20,AGAACGGG,-0.148
21,CTGAAAAA,-0.255
22,CCTTATTC,-0.283
23,ACAACGTA,-0.0839
24,ACACCGCC,0.205
25,GATCACAC,0.24

row,Sequence,PBM E-score
1,GCTGTCAC,-0.0698
2,CGGTTCCA,-0.0205
3,AGGGTTTC,-0.223
4,CACTCTAG,-0.107
5,CCCGGAGG,0.0264
6,CTATCTAA,-0.192
7,GCAGGCAA,0.0572
8,AGTCCAGG,-0.117
9,AACAAGAT,0.04
10,CAACCGCG,0.3
11,CGATGCAC,-0.176
12,AAATCAAT,0.0377
13,CGGCCCCG,-0.0177
14,AGGGTTAC,-0.0662
15,ACGGCCAG,-0.00917
16,AAAGTCAA,0.0394
17,AGTTAAAC,-0.0513
18,AACCATGC,0.234
19,ACTTAGGC,-0.172
20,ACCCCGTC,0.183
21,CTGCCAAC,-0.0991
22,GGCCCAAC,-0.0071
23,GCTCTGAC,-0.0622
24,ACCACATG,0.262
25,CCGGAACA,-0.0556

row,Sequence,PBM E-score
1,TAAATGAA,-0.0959
2,CACCCTAA,0.00036
3,GCGCTCAA,-0.205
4,ATCACTGC,0.289
5,CGCCTCCA,-0.0111
6,GAACGATC,0.0106
7,TCACTGGA,0.0394
8,CTACCCGC,0.157
9,CCTCCCGA,-0.15
10,GTCTGTAA,-0.0248
11,GGATGGAC,-0.0593
12,CATTCTGA,-0.0439
13,ACAGTTCA,0.0273
14,GCGGACGC,0.0124
15,CCCATTGC,0.163
16,ACAGGTAC,0.0321
17,TATCAGGA,-0.0274
18,CAAACATC,-0.0792
19,AAATAGTT,-0.115
20,AACGCGCC,-0.0794
21,GAAATTCC,-0.298
22,ATGGTAAG,-0.0491
